From the supplement of paper PMC4604168 (melanoma cell lines)
Some of the results follow. Most values come without repeats; read them as rough.

Key:
Experiment in all cases: cell count relative to DMSO control; melanoma cells; higher = more viable cells
Conditions in all cases: library dose: low library concentration; 72 h
[1] = system: COLO792
[2] = system: COLO800
[3] = system: COLO829
[4] = system: G361
[5] = system: IPC-298
[6] = system: IST-MEL1
[7] = system: LOXIMVI
[8] = system: MEL-HO
[9] = system: MeWo
[10] = system: RPMI7951
[11] = system: RVH-421
[12] = system: SkMel28
[13] = system: SkMel30
[14] = system: SkMel5
[15] = system: UACC257
[16] = system: UACC62
[17] = system: LB2518-MEL
[18] = system: MZ2-MEL
[19] = system: SkMel2
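Further: cell number obtained by counting DAPI-stained nuclei in high-throughput microscope images with image analysis software, screen run in 1,536-well plates.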

SMILES | cell count [1] [%] | cell count [2] [%] | cell count [3] [%] | cell count [4] [%] | cell count [5] [%] | cell count [6] [%] | cell count [7] [%] | cell count [8] [%] | cell count [9] [%] | cell count [10] [%] | cell count [11] [%] | cell count [12] [%] | cell count [13] [%] | cell count [14] [%] | cell count [15] [%] | cell count [16] [%] | cell count [17] [%] | cell count [18] [%] | cell count [19] [%]
N.N.[Cl][Pt][Cl] [cisplatin] + O=C(Oc1ccc([N+](=O)[O-])cc1)N1CCC(C(O)(c2ccc3c(c2)OCO3)c2ccc3c(c2)OCO3)CC1 [JZL184] (first compound 1.6 µM, partner dose 1 µM) | 100 | 96.9 | 111 | 106 | 108 | 99.5 | 109 | 84.3 | 110 | 106 | 98.6 | 103 | 94.3 | 94.5 | 107 | 101 |  |  | 
N.N.[Cl][Pt][Cl] [cisplatin] + CCN(CC)CCCCNc1ncc2cc(-c3cc(OC)cc(OC)c3)c(NC(=O)NC(C)(C)C)nc2n1 [PD173074] (first compound 1.6 µM, partner dose 0.1 µM) | 98.2 | 89 | 94.8 | 100 | 100 | 99.1 | 81.4 | 96.8 | 105 | 103 | 125 | 77.6 | 102 | 102 | 92.9 | 87.2 |  |  | 
C[C@]12O[C@H](C[C@]1(O)CO)n1c3ccccc3c3c4c(c5c6ccccc6n2c5c31)CNC4=O [Lestaurtinib] + CO[C@@H]1[C@H](N(C)C(=O)c2ccccc2)C[C@H]2O[C@]1(C)n1c3ccccc3c3c4c(c5c6ccccc6n2c5c31)C(=O)NC4 [Midostaurin] (first compound 0.004 µM, partner dose 0.08 µM) | 95.3 | 103 | 97.7 | 89.3 | 102 | 106 | 145 | 106 | 81.2 | 81 | 86.8 | 85.4 | 95 | 83.8 | 57.2 | 86.7 | 96.6 | 95.2 | 
C[C@]12O[C@H](C[C@]1(O)CO)n1c3ccccc3c3c4c(c5c6ccccc6n2c5c31)CNC4=O [Lestaurtinib] + Oc1nc(-c2ccc(C(F)(F)F)cc2)nc2c1CSCC2 [XAV939] (first compound 0.004 µM, partner dose 2 µM) | 88.5 | 93.7 | 103 | 97.8 | 100 | 103 | 83 | 102 | 87.4 | 87.3 | 126 | 103 | 87.2 | 84.4 | 88.4 | 91 | 93.8 | 120 | 
N.N.[Cl][Pt][Cl] [cisplatin] + NCC(=O)Nc1ccc(-n2nc(C(F)(F)F)cc2-c2ccc3c(ccc4ccccc43)c2)cc1 [OSU03012] (first compound 1.6 µM, partner dose 1 µM) | 99.5 | 80.9 | 80.4 | 106 | 96.8 | 102 | 114 | 95.6 | 95 | 96.5 | 81.8 | 94.2 | 132 | 91.9 | 94.6 | 97.3 |  |  | 
C[C@]12O[C@H](C[C@]1(O)CO)n1c3ccccc3c3c4c(c5c6ccccc6n2c5c31)CNC4=O [Lestaurtinib] + O=C(O)C(=O)Nc1sc2c(c1C(=O)O)CCNC2 [TCS401] (first compound 0.004 µM, partner dose 1.66667 µM) | 98.2 | 96 | 110 | 98.7 | 93.9 | 103 | 85.7 | 88.5 | 100 | 118 | 106 | 109 | 115 | 122 | 91.4 | 93 | 112 | 101 | 
C[C@]12O[C@H](C[C@]1(O)CO)n1c3ccccc3c3c4c(c5c6ccccc6n2c5c31)CNC4=O [Lestaurtinib] + CN(C)S(=O)(=O)c1ccc2c(c1)/C(=C/c1cc3c([nH]1)CCCC3)C(=O)N2 [SU6656] (first compound 0.004 µM, partner dose 0.4 µM) | 84.8 | 73.8 | 88.2 | 109 | 94.7 | 94.4 | 63.2 | 97.7 | 86 | 107 | 81.9 | 95.8 | 87 | 103 | 92.1 | 73.3 | 84.5 | 99.3 | 
C[C@]12O[C@H](C[C@]1(O)CO)n1c3ccccc3c3c4c(c5c6ccccc6n2c5c31)CNC4=O [Lestaurtinib] + O=C(Oc1ccc([N+](=O)[O-])cc1)N1CCC(C(O)(c2ccc3c(c2)OCO3)c2ccc3c(c2)OCO3)CC1 [JZL184] (first compound 0.004 µM, partner dose 1 µM) | 115 | 116 | 108 | 88 | 93 | 103 | 57.8 | 102 | 86.2 | 101 | 101 | 81.3 | 67.5 | 94.9 | 76 | 91.8 | 85.5 | 95.6 | 
C[C@]12O[C@H](C[C@]1(O)CO)n1c3ccccc3c3c4c(c5c6ccccc6n2c5c31)CNC4=O [Lestaurtinib] + Cc1cc(SCc2sc(-c3ccc(C(F)(F)F)c(F)c3)nc2C)ccc1OCC(=O)O [GW0742] (first compound 0.004 µM, partner dose 2 µM) | 109 | 110 | 103 | 116 | 97.4 | 103 | 89.8 | 95.7 | 100 | 124 | 98 | 115 | 89.4 | 122 | 99.7 | 113 | 88.7 | 98.5 | 
C[C@]12O[C@H](C[C@]1(O)CO)n1c3ccccc3c3c4c(c5c6ccccc6n2c5c31)CNC4=O [Lestaurtinib] + Cc1cc(N2CCOCC2)cc2[nH]c(-c3c(NC[C@@H](O)c4cccc(Cl)c4)cc[nH]c3=O)nc12 [BMS536924] (first compound 0.004 µM, partner dose 0.2 µM) | 73.6 | 55 | 96.2 | 110 | 102 | 96.4 | 40.3 | 98.2 | 82.7 | 112 | 109 | 93.2 | 64.7 | 83.2 | 71.5 | 102 | 82.5 | 98 | 
C[C@]12O[C@H](C[C@]1(O)CO)n1c3ccccc3c3c4c(c5c6ccccc6n2c5c31)CNC4=O [Lestaurtinib] + O=C(Nc1cccc(Cl)c1)Nc1ncc(CCNc2ncnc3ccsc23)s1 [SNS314] (first compound 0.004 µM, partner dose 0.0008 µM) | 84.2 | 160 | 91.3 | 122 | 108 | 97.2 | 69.8 | 99.6 | 100 | 128 | 97.8 | 97.6 | 115 | 107 | 89.2 | 95 | 99.8 | 119 | 
C[C@]12O[C@H](C[C@]1(O)CO)n1c3ccccc3c3c4c(c5c6ccccc6n2c5c31)CNC4=O [Lestaurtinib] + CN(NC(=O)CC(=O)NN(C)C(=S)c1ccccc1)C(=S)c1ccccc1 [STA4783] (first compound 0.004 µM, partner dose 0.006 µM) | 77 | 89.6 | 113 | 115 | 98.1 | 91 | 106 | 85.3 | 93.6 | 96.4 | 112 | 103 | 93.7 | 105 | 80.5 | 87.8 | 83.6 | 107 | 
C[C@]12O[C@H](C[C@]1(O)CO)n1c3ccccc3c3c4c(c5c6ccccc6n2c5c31)CNC4=O [Lestaurtinib] + COc1cc2c(Oc3ccc4[nH]c(C)cc4c3F)ncnc2cc1OCCCN1CCCC1 [cediranib] (first compound 0.004 µM, partner dose 0.4 µM) | 93.2 | 152 | 125 | 120 | 108 | 95.5 | 64 | 111 | 98.7 | 113 | 99.4 | 92.4 | 76.7 | 90.1 | 88.5 | 79.3 | 105 | 113 | 
C[C@]12O[C@H](C[C@]1(O)CO)n1c3ccccc3c3c4c(c5c6ccccc6n2c5c31)CNC4=O [Lestaurtinib] + COc1ccc(COc2ccc(Cc3cnc(N)nc3N)cc2OC)cc1 [GW2580] (first compound 0.004 µM, partner dose 1 µM) | 91.6 | 81.2 | 125 | 91.1 | 100 | 104 | 85.7 | 112 | 85.5 | 101 | 85.5 | 94.1 | 86.1 | 101 | 79.6 | 82.3 | 94.2 | 104 | 
C[C@]12O[C@H](C[C@]1(O)CO)n1c3ccccc3c3c4c(c5c6ccccc6n2c5c31)CNC4=O [Lestaurtinib] + CCc1ccc(CCOc2ccc(CC3SC(=O)NC3=O)cc2)nc1 [pioglitazone] (first compound 0.004 µM, partner dose 2 µM) | 97.9 | 102 | 89.9 | 92.4 | 99 | 101 | 151 | 64.7 | 95.6 | 91.6 | 106 | 91.8 | 66.9 | 123 | 70 | 68.1 | 85.3 | 99.4 | 
C[C@]12O[C@H](C[C@]1(O)CO)n1c3ccccc3c3c4c(c5c6ccccc6n2c5c31)CNC4=O [Lestaurtinib] + COc1cc(N2CCC(N3CCN(C)CC3)CC2)ccc1Nc1ncc(Cl)c(Nc2ccccc2S(=O)(=O)C(C)C)n1 [NVP-TAE684] (first compound 0.004 µM, partner dose 0.08 µM) | 95 | 114 | 81.9 | 95.5 | 97.5 | 108 | 126 | 103 | 86.8 | 108 | 80.4 | 85.6 | 65 | 86 | 92.2 | 80.2 | 108 | 101 | 
N.N.[Cl][Pt][Cl] [cisplatin] + O=C(O)c1ccc(-c2c[nH]c3ncc(-c4ccccc4)cc23)cc1C1CCCC1 [GSK650394] (first compound 1.6 µM, partner dose 0.16 µM) | 98.5 | 77.8 | 104 | 92.2 | 97.2 | 90.8 | 80.8 | 79.8 | 86.9 | 128 | 76.1 | 99.5 | 89.7 | 103 | 114 | 92.6 |  |  | 109
C[C@]12O[C@H](C[C@]1(O)CO)n1c3ccccc3c3c4c(c5c6ccccc6n2c5c31)CNC4=O [Lestaurtinib] + Oc1cc(-c2nc(-c3ccccc3)[nH]c2-c2ccncc2)ccc1Cl [L779450] (first compound 0.004 µM, partner dose 0.2 µM) | 106 | 85.8 | 119 | 88.1 | 80.7 | 101 | 151 | 90.1 | 91.9 | 121 | 94.6 | 85.9 | 70.2 | 116 | 77 | 50.3 | 91.4 | 89.9 | 
